# Results as given in PubChem BioAssay AID463173 (ICCB-Longwood Screening Facility, Harvard Medical School, 2010).
# In all, about 52,000 compounds went through this assay and about 1,700 (3.3%) were called active. No stated cut-off is given here; in the data, active means survival mostly below about 52% (no sharp cut-off); inactive means mostly above about 56%. This is one part of the list.
# Test system: Wild type
# Assay: growth inhibition of S. aureus wild type versus tarO mutant, primary screen, teichoic acid synthesis inhibitors, RN4220, OD600 (AID 463173)
# Settings: S. aureus RN4220 wild type/DeltatarO growth, OD600, 18 h, stronger effect = lower value, screened at 18.75 µg/mL (by protocol)
row,Structure (SMILES),survival
1,CN(C)c1ccc(CNS(=O)(=O)c2ccc(-c3cc(C(F)(F)F)on3)s2)cc1,inactive: 75%
2,CCCCn1c(=O)c2oc3ccccc3c2n(CC(=O)Nc2ccc(CC)cc2)c1=O,inactive: 85%
3,CCn1cc2nc(SCc3cc(C)ccc3C)n(CCc3ccccc3)c(=O)c2n1,inactive: 76%
4,Cc1cccc(N2CCN(S(=O)(=O)c3c(C)nc4scc(C)n4c3=O)CC2)c1C,inactive: 133%
5,COc1ccccc1NC(=O)c1ccc(COc2ccc(C)c(C)c2)o1,active: 0%
6,Cc1ccccc1NC(=O)CN1CCCC1,inactive: 110%
7,CCCCn1c(=N)n(CCCOc2ccc(F)cc2)c2ccccc21,inactive: 52%
8,CC1CCN(C(c2ccccc2)c2sc3nc(-c4ccco4)nn3c2O)CC1 (stereo unspecified),inactive: 68%
9,O=C(CSc1nc(-c2ccccc2)cn1-c1ccccc1F)Nc1ccc(F)cc1,inactive: 68%
10,COc1ccc(CNS(=O)(=O)c2cc3c(cc2Cl)N(C(C)=O)CCO3)cc1,inactive: 85%
11,COc1ccc(-c2nnc(SC(C)C)n2-c2ccccc2)cc1,inactive: 115%
12,COc1ccc(NC(=O)CSc2nc(-c3cc(OC)c(OC)c(OC)c3)[nH]c2-c2ccc(F)cc2)cc1,inactive: 67%
13,COc1cc(NC(=O)CN2CCN(S(=O)(=O)c3ccc(Br)cc3)CC2)cc(OC)c1,inactive: 124%
14,Cc1ccc(Nc2cc(C(=O)NCCc3ccccc3)c3ccccc3n2)c(C)c1,inactive: 88%
15,O=C(Cn1c(C(=O)NCC2CCCO2)cc2sccc21)c1ccccc1 (stereo unspecified),inactive: 110%
16,CCCCC(=O)Nc1c(C(=O)N2CCN(c3ccccc3F)CC2)oc2ccccc12,inactive: 82%
17,O=C(Cn1nc(-c2ccc(Cl)cc2)c2ccccc2c1=O)Nc1cccc(Br)c1,inactive: 61%
18,CSc1ccccc1NC(=O)CSc1ncccn1,inactive: 112%
19,O=C(Nc1cccc(F)c1)C1CCCN(S(=O)(=O)c2cccc3cccnc23)C1 (stereo unspecified),inactive: 67%
20,Cc1ccccc1Cn1c(COc2ccc(Cl)cc2)nc2ccccc21,inactive: 130%
21,Cc1nc2ccc(S(=O)(=O)N(C)CC(=O)Nc3ccc(C(C)C)cc3)cc2s1,inactive: 131%
22,Cc1nc(C)c(CC(=O)O)c(=O)[nH]1,inactive: 112%
23,COc1ccc(CNC(=O)C2CCN(c3nnc(-n4c(C)ccc4C)s3)CC2)c(OC)c1,inactive: 79%

row,Structure (SMILES),survival
1,CC1CCN(S(=O)(=O)c2ccc3c(c2)c(=O)c(C(=O)N2CCN(c4cccc(Cl)c4)CC2)cn3C)CC1,inactive: 94%
2,O=c1c2cc3c(cc2nc2sc(Nc4ccccc4)nn12)OCO3,inactive: 72%
3,Cc1ccc(-n2ncc(C(=O)NCCN3CCc4ccccc4C3)c2C2CCN(C(=O)OC(C)(C)C)CC2)cc1C,inactive: 71%
4,COc1ccc(NC(=O)CN2CCN(CC(=O)Nc3ccccc3F)CC2)c(OC)c1,inactive: 91%
5,O=C(CN(Cc1ccccc1)C(=O)Cn1nnc(-c2ccc(F)cc2)n1)NC1CCCC1,inactive: 111%
6,O=C1c2ccccc2-c2onc3c(Oc4ccccc4)cc(O)c1c23,inactive: 115%
7,COc1ccc(S(=O)(=O)c2c(Nc3cccc(C)c3C)sc(C(=O)c3ccccc3)c2N)cc1,inactive: 94%
8,COc1ccc(-c2nc(SCC(=O)NC(C)CCc3ccccc3)n[nH]2)cc1 (stereo unspecified),active: -1%
9,CCN(CC)C1=C(C(=O)c2ccccc2)NS(=O)(=O)c2ccccc21,inactive: 103%
10,COC(=O)c1ccc(NC(=O)CSc2cn(CC(=O)N3CCCCC3)c3ccccc23)cc1,inactive: 89%
11,CCN(c1ccccc1)S(=O)(=O)c1c(C)nc2scc(C)n2c1=O,inactive: 74%
12,COc1ccc(N2CCN(c3ncnc4c3cnn4-c3ccc(F)cc3)CC2)cc1,inactive: 112%
13,CCOC(=O)c1c(C)oc2nc(C)nc(NCCc3ccc(OCC)c(OCC)c3)c12,inactive: 73%
14,CCc1ccccc1NC(=O)CCCSc1nc(-c2ccco2)cc(C(F)(F)F)n1,inactive: 79%
15,COc1ccc(NC(=O)C2=CC(c3ccco3)=NS(=O)(=O)N2C)cc1OC,inactive: 88%
16,CCOCCc1nn2c(=O)cc(COC(=O)c3ccc(NC(=O)C4CCCCC4)cc3)nc2s1,inactive: 82%
17,CCN(c1ccccc1)S(=O)(=O)c1nnc(NC(=O)c2ccccc2OC)s1,inactive: 71%
18,COc1ccccc1CNc1nc2ccc(C)cc2n2nnnc12,active: -1%
19,Cc1nn(-c2ccccc2)c(OC(=O)c2ccccc2Br)c1S(=O)(=O)c1ccccc1,inactive: 59%
20,Cc1cc(NC(=O)c2ccc3c(c2)N(Cc2cccc(Cl)c2)C(=O)c2ccccc2S3(=O)=O)ccc1Br,inactive: 111%
21,O=C(CS(=O)(=O)c1cccc2nsnc12)N1CCN(c2ccccc2F)CC1,inactive: 94%
22,O=C(Nc1ccc(Cl)cc1)C1CCC(CNS(=O)(=O)c2ccc(Br)s2)CC1 (stereo unspecified),inactive: 88%
23,CC1=C(C(=O)Nc2ccccc2Cl)C(c2cccc(O)c2)n2ncnc2N1 (stereo unspecified),inactive: 130%
